Measured values reported in the supplement of paper PMC8285479.
Counter-ions that a name gives are not always drawn. ± gives the standard deviation of the averaged measurements. The full ranking holds about 1,900 compounds; the median of “normalised cell viability (NPI; 0 = phenylarsine oxide control, 1 = DMSO control)” is about 1, and the lowest 2% start at about 0.039. The list shows a part of the results.

Test system: NCI-H1944
Test: normalised cell viability (NPI; 0 = phenylarsine oxide control, 1 = DMSO control) (fraction of DMSO control); NCI-H1944 is a non-small cell lung cancer line; higher = more viable cells (less compound toxicity)
Details: 6 days
[1] = glucocorticoid arm: hydrocortisone 2.75 uM co-treatment, compound 1 µM
[2] = glucocorticoid arm: hydrocortisone 2.75 uM co-treatment, compound 5 µM
[3] = glucocorticoid arm: hydrocortisone 2.75 uM pre-treated 2 days and continued, compound 1 µM
[4] = glucocorticoid arm: hydrocortisone 2.75 uM pre-treated 2 days and continued, compound 5 µM
[5] = glucocorticoid arm: vehicle, compound 1 µM
[6] = glucocorticoid arm: vehicle, compound 5 µM
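Note: CTB read-out in 384-well plates, mean of triplicate wells, normalised per plate against 1 µM phenylarsine oxide and 0.1% DMSO, compounds added 24 h after seeding.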

| SMILES | normalised cell viability [1] | normalised cell viability [2] | normalised cell viability [3] | normalised cell viability [4] | normalised cell viability [5] | normalised cell viability [6] |
| --- | --- | --- | --- | --- | --- | --- |
| COc1ccc2c(c1)c(CC(=O)O)c(C)n2Cc1ccc(F)cc1 [1-(4-Fluorobenzyl)-5-methoxy-2-methylindole-3-acetic acid] | 0.987 ± 0.014 | 0.977 ± 0.017 | 0.983 ± 0.028 | 0.982 ± 0.013 | 0.9717 ± 0.0076 | 0.974 ± 0.0027 |
| CCn1c(N)c(C(=O)NC)c(=O)c2ccc(C#CC(C)(O)COC)nc21 (stereo unspecified) | 1.006 ± 0.0063 | 1 ± 0.014 | 1.001 ± 0.0083 | 0.996 ± 0.026 | 0.996 ± 0.015 | 0.975 ± 0.02 |
| OCCn1cc(-c2ccc3c(c2)CC/C3=N\O)c(-c2ccncc2)n1 | 1.1 ± 0.01 | 1.17 ± 0.017 | 1.087 ± 0.0058 | 1.12 ± 0.015 | 1.03 | 1.04 ± 0.01 |
| CNC(=O)c1c(F)cccc1Nc1nc(Nc2cc3c(cc2OC)CCN3C(=O)CN(C)C)nc2[nH]ccc12 | 0.542 ± 0.031 | 0.467 ± 0.013 | 0.622 ± 0.016 | 0.598 ± 0.034 | 0.99 | 0.9713 ± 0.009 |
| COc1ccc2c(c1)c(CC(=O)O)c(C)n2C(=O)c1ccccc1 [1-benzoyl-5-methoxy-2-methylindole-3-acetic acid] | 1 ± 0.011 | 0.9993 ± 0.0011 | 0.9923 ± 0.0093 | 0.99 ± 0.028 | 0.9833 ± 0.0042 | 0.987 ± 0.01 |
| C#Cc1ccc2c(c1)C(=O)N(C)Cc1c(C(=O)OCCCOC(=O)c3ncn4c3CN(C)C(=O)c3cc(C#C)ccc3-4)ncn1-2 [Xli 093 hydrate] | 0.999 ± 0.011 | 1.01 ± 0.015 | 1 ± 0.013 | 1.01 | 0.99 ± 0.01 | 0.9967 ± 0.0015 |
| O=C(/C=C/c1cccc(S(=O)(=O)Nc2ccccc2)c1)NO [Belinostat (PXD101)] | 0.9767 ± 0.0051 | 0.0174 ± 0.0036 | 1.02 | 0.114 ± 0.0036 | 0.575 ± 0.067 | 0.00153 ± 0.00067 |
| CC(C)(C)c1cc(NC(=O)Nc2ccc(-c3cn4c(n3)sc3cc(OCCN5CCOCC5)ccc34)cc2)no1 [Quizartinib (AC220)] | 1.04 ± 0.011 | 1.06 ± 0.015 | 1.023 ± 0.0058 | 1.02 ± 0.051 | 1.05 ± 0.049 | 1.027 ± 0.0058 |
| C=C/C(C)=C/[C@@]1(C)SC(=O)C(C)=C1O [Thiolactomycin] | 0.992 ± 0.0056 | 0.961 ± 0.021 | 1 ± 0.026 | 0.848 ± 0.23 | 0.9883 ± 0.0015 | 0.998 ± 0.012 |
| COc1cc2nc(N3CCN(C(=O)C4COc5ccccc5O4)CC3)nc(N)c2cc1OC (stereo unspecified) [Doxazosin Mesylate] | 1.007 ± 0.0058 | 1.027 ± 0.0058 | 1.01 ± 0.018 | 1.02 ± 0.015 | 0.9953 ± 0.0011 | 0.9983 ± 0.0029 |
| COc1cc2nc(N3CCN(C(=O)C4COc5ccccc5O4)CC3)nc(N)c2cc1OC (stereo unspecified) [Doxazosin mesylate] | 1.01 ± 0.013 | 0.995 ± 0.022 | 0.997 ± 0.014 | 1.04 | 1 ± 0.011 | 0.9887 ± 0.0098 |
| N#C/C(=C(/N)Sc1ccc(N)cc1)c1ccccc1C(F)(F)F | 0.827 ± 0.0092 | 0.649 ± 0.021 | 0.85 ± 0.013 | 0.78 ± 0.011 | 0.954 ± 0.0069 | 0.859 ± 0.057 |
| COc1cc(OC)c(NC(=O)Nc2cc(C)on2)cc1Cl | 0.955 ± 0.011 | 0.857 ± 0.0095 | 0.981 ± 0.02 | 0.914 ± 0.0056 | 0.971 ± 0.018 | 0.9783 ± 0.0093 |
| CNC(=O)c1ccc(N2C(=S)N(c3ccc(C#N)c(C(F)(F)F)c3)C(=O)C2(C)C)cc1F [Enzalutamide] | 1.02 ± 0.011 | 0.658 ± 0.015 | 1.002 ± 0.0072 | 0.812 ± 0.026 | 1.002 ± 0.0072 | 0.244 ± 0.02 |
| O=C(CCBr)N1CCN(C(=O)CCBr)CC1 [Pipobroman] | 1.01 ± 0.011 | 1.06 ± 0.01 | 1.01 ± 0.012 | 1.06 ± 0.01 | 1.003 ± 0.0058 | 0.82 ± 0.019 |
| N[C@H]1CONC1=O [L-Cycloserine] | 1.01 ± 0.016 | 1.01 ± 0.017 | 1 ± 0.017 | 0.99 ± 0.0057 | 1.01 ± 0.011 | 1.002 ± 0.007 |
| CC#CCn1c(N2CCC[C@@H](N)C2)nc2c1c(=O)n(Cc1nc(C)c3ccccc3n1)c(=O)n2C [Linagliptin (BI-1356)] | 0.977 ± 0.01 | 1.001 ± 0.0085 | 0.987 ± 0.028 | 1 ± 0.013 | 0.992 ± 0.011 | 1.007 ± 0.0058 |
| COc1ccc2c3n(c(=NC(=O)c4cccnc4)nc2c1OC)CCN3 | 0.911 ± 0.004 | 0.628 ± 0.018 | 0.901 ± 0.012 | 0.663 ± 0.033 | 0.9907 ± 0.0049 | 0.85 ± 0.029 |
| CCN(CC)CCOCCOC(=O)C1(c2ccccc2)CCCC1 [Carbetapentane citrate] | 0.985 ± 0.025 | 0.952 ± 0.019 | 1.02 ± 0.01 | 1.01 | 0.998 ± 0.013 | 1.003 ± 0.0058 |
| O=c1[nH]ccc2c(O)cccc12 [1,5-Isoquinolinediol] | 1.007 ± 0.0058 | 1.01 ± 0.017 | 0.9963 ± 0.0063 | 1.04 ± 0.086 | 0.985 ± 0.007 | 0.991 ± 0.017 |
| Cc1cc(C(C)(C)C)cc(C)c1CC1=NCCN1 [Xylometazoline hydrochloride] | 1.02 ± 0.01 | 1.02 ± 0.02 | 1.03 ± 0.032 | 1.03 ± 0.021 | 1.013 ± 0.0058 | 1.02 ± 0.01 |
| COc1cc(NC(=O)c2ccccn2)ccc1Cl | 1.03 ± 0.023 | 1.02 ± 0.011 | 1.007 ± 0.0058 | 1.01 ± 0.02 | 1.02 ± 0.017 | 1.003 ± 0.0064 |
| O=P(O)(O)C(O)(Cn1ccnc1)P(=O)(O)O [Zoledronic acid; Zolendronic acid] | 0.887 ± 0.026 | 1.02 ± 0.015 | 0.9123 ± 0.0087 | 1.01 ± 0.013 | 0.8097 ± 0.004 | 1.007 ± 0.0058 |
| O=C(c1cc(O)c(O)c([N+](=O)[O-])c1)c1ccccc1F | 1 ± 0.0089 | 0.997 ± 0.025 | 1.02 ± 0.021 | 0.975 ± 0.017 | 0.9857 ± 0.0095 | 0.9863 ± 0.0021 |
| CCc1cccc(CC)c1NC(=O)N1Cc2[nH]nc(NC(=O)c3ccc(N4CCN(C)CC4)cc3)c2C1 | 0.842 ± 0.046 | 0.633 ± 0.067 | 0.917 ± 0.043 | 0.882 ± 0.06 | 0.509 ± 0.06 | 0.221 ± 0.019 |
| CC[C@@H]1C(=O)N(C)c2cnc(Nc3ccc(C(=O)N[C@H]4CC[C@H](N5CCN(CC6CC6)CC5)CC4)cc3OC)nc2N1C(C)C [BI6727 (Volasertib)] | 0.346 ± 0.023 | 0.201 ± 0.025 | 0.58 ± 0.017 | 0.213 ± 0.15 | 0.0771 ± 0.019 | 0.0219 ± 0.0034 |
